Test results taken from the BET-seq Pho4 binding data (Le et al. 2018).
This is one part of the list. These are noisy estimates, calculated here from bound and input reads.

Molecular target: T1, Pho4 (S. cerevisiae) (UniProt P07270)
T1 sequence: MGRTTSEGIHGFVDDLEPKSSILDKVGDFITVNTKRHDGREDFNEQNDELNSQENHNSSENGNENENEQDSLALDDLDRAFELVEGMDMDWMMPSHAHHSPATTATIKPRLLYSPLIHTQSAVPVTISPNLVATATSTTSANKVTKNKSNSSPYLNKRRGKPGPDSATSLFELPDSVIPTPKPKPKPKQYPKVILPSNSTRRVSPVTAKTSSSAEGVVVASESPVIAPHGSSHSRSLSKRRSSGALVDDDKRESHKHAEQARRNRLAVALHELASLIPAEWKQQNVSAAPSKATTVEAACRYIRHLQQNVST
Experiment: relative binding free energy (BET-seq); higher = weaker binding
Settings: reference: library average

Sequence | relative binding free energy [kcal/mol]
TTGGGCACGTGCTCTT | -0.16
TAGGGCACGTGGTTAG | -0.1
CGGTTCACGTGAGTGA | 0.25
GAGTTCACGTGGGATT | 0.35
TGTAGCACGTGGAGAC | 0.06
GGTTTCACGTGATAAG | 0.22
GTGTACACGTGTTGCG | 0.14
GTTTGCACGTGGGACA | -0.02
CGAGACACGTGTATGG | 0.14
TGGGTCACGTGACAAG | 0.12
TTATACACGTGCGGAT | 0.1
CCGTGCACGTGGAGGG | -0.12
GTTATCACGTGTATAT | 0.19
GAGTGCACGTGGAATT | 0.31
GGGTACACGTGCTAGG | 0.03
GTGGACACGTGTTATT | 0.11
TCTGACACGTGATGGT | 0.04
GTGAACACGTGTGATT | 0.07
ATTACCACGTGGGGGC | -0.12
TTATACACGTGAGTGC | 0.28
TTACACACGTGGTGAG | -0.07
GGGTACACGTGAGGAA | 0.37
GGGATCACGTGTGTGC | 0.23

Sequence | relative binding free energy [kcal/mol]
AAATGCACGTGTGTAT | -0.04
TAGGCCACGTGCTGGT | -0.21
AGAGGCACGTGCGTTA | -0.26
GTTTTCACGTGTTGAA | 0.28
TCTTGCACGTGTTTGT | 0.06
ATCGTCACGTGGTTTG | 0.15
CGATGCACGTGATAGT | 0.16
GCGAGCACGTGGGAGG | -0.34
ATTGGCACGTGAGGGG | 0.25
GCTGTCACGTGGATGG | 0.09
AACAGCACGTGGTGGT | -0.26
CCGTTCACGTGGGGTA | 0.18
TGTGCCACGTGGAAGG | -0.08
GGGTACACGTGTGGTG | 0.17
TTGTTCACGTGTTGTG | 0.25
GAATGCACGTGTATAT | 0.13
TTTGTCACGTGGTACG | 0.03
ATTGCCACGTGGCAGG | -0.06
TCGTGCACGTGTCGGT | -0.09
TAGCGCACGTGTGGGC | -0.07
CTTAGCACGTGATTTT | 0.03
TGAGACACGTGTATGG | -0.03
TATGGCACGTGATGGG | -0.03

Sequence | relative binding free energy [kcal/mol]
TCGGCCACGTGGATGG | -0.01
TAGGTCACGTGTGGTT | 0.14
AGTTGCACGTGTTCTT | -0.04
TATGGCACGTGTTTTC | -0.15
TACTTCACGTGAAGTT | 0.35
GAGGGCACGTGCAGGA | -0.17
GAATTCACGTGTGGGG | 0.34
GAACGCACGTGTAGTG | 0.12
GGGGGCACGTGAATTA | 0.06
GTCAGCACGTGAGGGG | 0.08
TTCATCACGTGTTTTT | 0.2
TGCCTCACGTGTGATG | 0.31
TCTGGCACGTGAGTAG | 0.08
TCTGGCACGTGTATAG | -0.09
GGGCACACGTGAAGGT | 0.27
CGTAGCACGTGAGAGT | 0.21
GTACTCACGTGAGGGC | 0.47
AAGGGCACGTGTGGTC | 0.04
TCGTGCACGTGAATTG | 0.17
TCTTTCACGTGTTAAT | 0.11
TTAGTCACGTGTGATT | 0.15
GGTGGCACGTGACTGT | 0.15
ATTGGCACGTGCATGG | -0.24

Sequence | relative binding free energy [kcal/mol]
TGGGCCACGTGTGGAG | -0.05
GGCGGCACGTGCCAGG | -0.08
TTTGTCACGTGCACGG | -0.01
TGTTACACGTGGACTG | 0.2
GTTCGCACGTGGTTGT | -0.06
TTGCTCACGTGCTGGT | 0.28
GGTGCCACGTGGTAGA | 0
TTATTCACGTGAAAGT | 0.32
TTGTTCACGTGATGTT | 0.39
GGTTTCACGTGGGTAA | 0.27
GGGATCACGTGAGCTT | 0.37
TAGGGCACGTGTAAGA | 0.05
GTCGTCACGTGATTTT | 0.3
TGGTGCACGTGGTTAT | -0.03
TTTTACACGTGCGTCG | 0.06
TTCAGCACGTGGGGGG | -0.26
AGAGTCACGTGGATAT | 0.17
TTGATCACGTGGGTGC | 0
TGGTTCACGTGGTGTG | 0.23
TGTGTCACGTGGCGAA | -0.03
GGGGCCACGTGCATGG | -0.17
AAAGCCACGTGAGGGT | 0.18
TTACGCACGTGTAGTG | -0.02

Sequence | relative binding free energy [kcal/mol]
GTGTGCACGTGGAAAG | 0.09
GGGTTCACGTGATCTG | 0.33
TTGCGCACGTGATGTA | -0.05
AATTGCACGTGTTGCA | 0.18
TGGTACACGTGGAGTG | 0.06
GATTTCACGTGTGGAT | 0.49
TGTAGCACGTGAGCGA | 0.09
GGGTGCACGTGGGGAG | -0.06
CTAAACACGTGGGTGG | -0.1
GGTTGCACGTGAATGT | 0.22
TGTTTCACGTGGCCGA | 0.37
GAGCGCACGTGGTAAG | 0.01
CTGGACACGTGTGTGG | 0.01
ATTGGCACGTGTCTGG | -0.14
CGGGTCACGTGTGTAT | 0.08
GTTAGCACGTGTTCGA | -0.05
ATTTTCACGTGTATGG | 0.17
CCAGTCACGTGGTGAG | 0.24
ATTCACACGTGGTGGT | 0.13
TGAGCCACGTGATGGA | 0.15
GGTGCCACGTGATTAG | 0.14
TAGAACACGTGGTAGG | -0.04
AGGGGCACGTGATGGA | 0
